Laboratory results reported in paper PMC8783668.
These are yes or no findings as the source states them, for the method shown. For part of these data: Binding seen in cells or lysates may run through a third protein. Some entries that bind do so weakly or less than the wild type. Sequences can lack the tags named with a protein.

How the values were obtained:
[1] = molecular target: T1, FLOWERING CONTROL LOCUS A (FCA), yeast two-hybrid fusion (Arabidopsis) (UniProt O04425); test: two-hybrid; Yeast Two-Hybrid in yeast; CPK32/pDEST32 as negative control
T1 sequence: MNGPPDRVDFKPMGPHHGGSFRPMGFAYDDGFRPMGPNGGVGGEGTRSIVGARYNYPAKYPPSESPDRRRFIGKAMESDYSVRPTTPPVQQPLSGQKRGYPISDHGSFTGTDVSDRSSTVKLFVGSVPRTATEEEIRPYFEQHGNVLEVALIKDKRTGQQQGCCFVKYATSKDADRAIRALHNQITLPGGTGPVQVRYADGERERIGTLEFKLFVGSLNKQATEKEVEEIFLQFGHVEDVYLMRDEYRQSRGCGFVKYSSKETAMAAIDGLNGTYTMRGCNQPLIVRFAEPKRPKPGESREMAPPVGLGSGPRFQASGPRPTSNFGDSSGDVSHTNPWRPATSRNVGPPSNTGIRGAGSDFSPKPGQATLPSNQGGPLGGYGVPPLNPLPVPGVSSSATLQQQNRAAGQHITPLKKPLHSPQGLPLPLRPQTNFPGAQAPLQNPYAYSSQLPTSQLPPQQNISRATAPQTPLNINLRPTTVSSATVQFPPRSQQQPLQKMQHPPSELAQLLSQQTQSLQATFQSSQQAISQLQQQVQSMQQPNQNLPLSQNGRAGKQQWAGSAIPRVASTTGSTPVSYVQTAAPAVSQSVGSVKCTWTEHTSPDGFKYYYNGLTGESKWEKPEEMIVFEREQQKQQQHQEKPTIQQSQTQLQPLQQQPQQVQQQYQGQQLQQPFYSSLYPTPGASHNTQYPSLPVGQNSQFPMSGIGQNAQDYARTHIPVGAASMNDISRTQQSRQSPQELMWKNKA

[2] = molecular target: T2, FCA fused to the N-terminal half of YFP (Arabidopsis) (UniProt O04425); test: split reporter; BiFC with the two halves of YFP in N. benthamiana leaves; DAPI to stain the nucleus
T2 sequence: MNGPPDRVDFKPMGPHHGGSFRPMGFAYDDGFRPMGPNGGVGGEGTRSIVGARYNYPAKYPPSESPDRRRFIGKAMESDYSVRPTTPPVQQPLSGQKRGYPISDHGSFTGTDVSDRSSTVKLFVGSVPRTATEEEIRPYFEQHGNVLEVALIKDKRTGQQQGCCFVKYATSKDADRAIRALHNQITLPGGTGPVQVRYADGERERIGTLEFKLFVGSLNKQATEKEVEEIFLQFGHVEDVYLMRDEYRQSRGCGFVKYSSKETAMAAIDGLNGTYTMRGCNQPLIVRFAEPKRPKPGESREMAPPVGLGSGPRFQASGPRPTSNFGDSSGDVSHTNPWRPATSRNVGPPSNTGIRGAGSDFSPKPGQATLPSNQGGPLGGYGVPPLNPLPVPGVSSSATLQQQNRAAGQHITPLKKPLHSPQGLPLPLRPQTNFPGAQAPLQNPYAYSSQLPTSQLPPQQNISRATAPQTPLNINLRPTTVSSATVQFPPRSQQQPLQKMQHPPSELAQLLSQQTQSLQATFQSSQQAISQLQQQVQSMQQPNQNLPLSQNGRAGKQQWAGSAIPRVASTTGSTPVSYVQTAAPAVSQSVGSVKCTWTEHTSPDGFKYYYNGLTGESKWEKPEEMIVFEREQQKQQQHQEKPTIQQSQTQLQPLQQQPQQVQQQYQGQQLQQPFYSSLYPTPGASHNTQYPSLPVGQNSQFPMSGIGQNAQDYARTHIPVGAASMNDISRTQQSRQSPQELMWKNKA

[3] = molecular target: T3, calcium-dependent protein kinase 32 (CPK32), yeast two-hybrid fusion (Arabidopsis) (UniProt Q6NLQ6); test: two-hybrid; Yeast Two-Hybrid in yeast; CPK32/pDEST32 as negative control
T3 sequence: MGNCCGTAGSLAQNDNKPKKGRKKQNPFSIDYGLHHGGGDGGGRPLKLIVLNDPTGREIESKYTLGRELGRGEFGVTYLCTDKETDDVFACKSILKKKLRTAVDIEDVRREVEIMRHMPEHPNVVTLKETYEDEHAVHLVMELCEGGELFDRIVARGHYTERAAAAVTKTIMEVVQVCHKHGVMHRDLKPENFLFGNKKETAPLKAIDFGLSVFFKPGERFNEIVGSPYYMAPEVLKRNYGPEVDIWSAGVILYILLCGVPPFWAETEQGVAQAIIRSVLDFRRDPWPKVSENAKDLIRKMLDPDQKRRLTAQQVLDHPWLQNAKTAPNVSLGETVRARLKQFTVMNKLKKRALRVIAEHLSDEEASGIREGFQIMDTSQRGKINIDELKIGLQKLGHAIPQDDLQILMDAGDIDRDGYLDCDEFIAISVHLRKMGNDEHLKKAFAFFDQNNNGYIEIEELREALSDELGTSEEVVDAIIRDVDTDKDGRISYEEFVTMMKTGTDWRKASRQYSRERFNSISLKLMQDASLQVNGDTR

[4] = molecular target: T4, FY-YN (FY fused to the N-terminal half of YFP) (Arabidopsis) (UniProt Q6NLV4); test: split reporter; BiFC with the two halves of YFP in N. benthamiana leaves; DAPI to stain the nucleus
T4 sequence: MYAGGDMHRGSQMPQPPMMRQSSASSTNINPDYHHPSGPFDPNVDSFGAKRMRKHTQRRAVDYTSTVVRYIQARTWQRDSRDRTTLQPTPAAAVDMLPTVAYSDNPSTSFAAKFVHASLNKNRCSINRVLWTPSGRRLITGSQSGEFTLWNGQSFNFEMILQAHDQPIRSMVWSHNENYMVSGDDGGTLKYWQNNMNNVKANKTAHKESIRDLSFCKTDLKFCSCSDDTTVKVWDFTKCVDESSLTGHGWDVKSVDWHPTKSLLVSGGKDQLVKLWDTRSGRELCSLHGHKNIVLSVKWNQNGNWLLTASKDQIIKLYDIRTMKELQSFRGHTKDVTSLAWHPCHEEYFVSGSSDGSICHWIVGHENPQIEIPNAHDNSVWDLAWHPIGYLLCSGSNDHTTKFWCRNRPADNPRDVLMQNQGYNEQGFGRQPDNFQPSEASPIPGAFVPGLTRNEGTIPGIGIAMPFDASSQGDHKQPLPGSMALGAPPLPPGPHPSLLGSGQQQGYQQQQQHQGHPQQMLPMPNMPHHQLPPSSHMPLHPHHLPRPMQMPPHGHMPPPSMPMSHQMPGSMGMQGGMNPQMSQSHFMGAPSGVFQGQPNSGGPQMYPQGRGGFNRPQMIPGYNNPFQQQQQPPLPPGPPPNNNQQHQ

B1: calcium-dependent protein kinase 32 (CPK32), yeast two-hybrid fusion (enzyme, UniProt Q6NLQ6 1-538)
chain: MGNCCGTAGSLAQNDNKPKKGRKKQNPFSIDYGLHHGGGDGGGRPLKLIVLNDPTGREIESKYTLGRELGRGEFGVTYLCTDKETDDVFACKSILKKKLRTAVDIEDVRREVEIMRHMPEHPNVVTLKETYEDEHAVHLVMELCEGGELFDRIVARGHYTERAAAAVTKTIMEVVQVCHKHGVMHRDLKPENFLFGNKKETAPLKAIDFGLSVFFKPGERFNEIVGSPYYMAPEVLKRNYGPEVDIWSAGVILYILLCGVPPFWAETEQGVAQAIIRSVLDFRRDPWPKVSENAKDLIRKMLDPDQKRRLTAQQVLDHPWLQNAKTAPNVSLGETVRARLKQFTVMNKLKKRALRVIAEHLSDEEASGIREGFQIMDTSQRGKINIDELKIGLQKLGHAIPQDDLQILMDAGDIDRDGYLDCDEFIAISVHLRKMGNDEHLKKAFAFFDQNNNGYIEIEELREALSDELGTSEEVVDAIIRDVDTDKDGRISYEEFVTMMKTGTDWRKASRQYSRERFNSISLKLMQDASLQVNGDTR
binding [1]: binds

B2: CPK32 fused to the C-terminal half of YFP (enzyme, UniProt Q6NLQ6 1-538)
chain: MGNCCGTAGSLAQNDNKPKKGRKKQNPFSIDYGLHHGGGDGGGRPLKLIVLNDPTGREIESKYTLGRELGRGEFGVTYLCTDKETDDVFACKSILKKKLRTAVDIEDVRREVEIMRHMPEHPNVVTLKETYEDEHAVHLVMELCEGGELFDRIVARGHYTERAAAAVTKTIMEVVQVCHKHGVMHRDLKPENFLFGNKKETAPLKAIDFGLSVFFKPGERFNEIVGSPYYMAPEVLKRNYGPEVDIWSAGVILYILLCGVPPFWAETEQGVAQAIIRSVLDFRRDPWPKVSENAKDLIRKMLDPDQKRRLTAQQVLDHPWLQNAKTAPNVSLGETVRARLKQFTVMNKLKKRALRVIAEHLSDEEASGIREGFQIMDTSQRGKINIDELKIGLQKLGHAIPQDDLQILMDAGDIDRDGYLDCDEFIAISVHLRKMGNDEHLKKAFAFFDQNNNGYIEIEELREALSDELGTSEEVVDAIIRDVDTDKDGRISYEEFVTMMKTGTDWRKASRQYSRERFNSISLKLMQDASLQVNGDTR
binding [2]: binds

B3: FLOWERING LOCUS Y (FY), yeast two-hybrid fusion (protein, UniProt Q6NLV4 1-647)
chain: MYAGGDMHRGSQMPQPPMMRQSSASSTNINPDYHHPSGPFDPNVDSFGAKRMRKHTQRRAVDYTSTVVRYIQARTWQRDSRDRTTLQPTPAAAVDMLPTVAYSDNPSTSFAAKFVHASLNKNRCSINRVLWTPSGRRLITGSQSGEFTLWNGQSFNFEMILQAHDQPIRSMVWSHNENYMVSGDDGGTLKYWQNNMNNVKANKTAHKESIRDLSFCKTDLKFCSCSDDTTVKVWDFTKCVDESSLTGHGWDVKSVDWHPTKSLLVSGGKDQLVKLWDTRSGRELCSLHGHKNIVLSVKWNQNGNWLLTASKDQIIKLYDIRTMKELQSFRGHTKDVTSLAWHPCHEEYFVSGSSDGSICHWIVGHENPQIEIPNAHDNSVWDLAWHPIGYLLCSGSNDHTTKFWCRNRPADNPRDVLMQNQGYNEQGFGRQPDNFQPSEASPIPGAFVPGLTRNEGTIPGIGIAMPFDASSQGDHKQPLPGSMALGAPPLPPGPHPSLLGSGQQQGYQQQQQHQGHPQQMLPMPNMPHHQLPPSSHMPLHPHHLPRPMQMPPHGHMPPPSMPMSHQMPGSMGMQGGMNPQMSQSHFMGAPSGVFQGQPNSGGPQMYPQGRGGFNRPQMIPGYNNPFQQQQQPPLPPGPPPNNNQQHQ
binding [3]: no binding

B4: FCA^S592D fused to the C-terminal half of YFP (protein, UniProt O04425 1-747)
chain: MNGPPDRVDFKPMGPHHGGSFRPMGFAYDDGFRPMGPNGGVGGEGTRSIVGARYNYPAKYPPSESPDRRRFIGKAMESDYSVRPTTPPVQQPLSGQKRGYPISDHGSFTGTDVSDRSSTVKLFVGSVPRTATEEEIRPYFEQHGNVLEVALIKDKRTGQQQGCCFVKYATSKDADRAIRALHNQITLPGGTGPVQVRYADGERERIGTLEFKLFVGSLNKQATEKEVEEIFLQFGHVEDVYLMRDEYRQSRGCGFVKYSSKETAMAAIDGLNGTYTMRGCNQPLIVRFAEPKRPKPGESREMAPPVGLGSGPRFQASGPRPTSNFGDSSGDVSHTNPWRPATSRNVGPPSNTGIRGAGSDFSPKPGQATLPSNQGGPLGGYGVPPLNPLPVPGVSSSATLQQQNRAAGQHITPLKKPLHSPQGLPLPLRPQTNFPGAQAPLQNPYAYSSQLPTSQLPPQQNISRATAPQTPLNINLRPTTVSSATVQFPPRSQQQPLQKMQHPPSELAQLLSQQTQSLQATFQSSQQAISQLQQQVQSMQQPNQNLPLSQNGRAGKQQWAGSAIPRVASTTGSTPVSYVQTAAPAVSQSVGDVKCTWTEHTSPDGFKYYYNGLTGESKWEKPEEMIVFEREQQKQQQHQEKPTIQQSQTQLQPLQQQPQQVQQQYQGQQLQQPFYSSLYPTPGASHNTQYPSLPVGQNSQFPMSGIGQNAQDYARTHIPVGAASMNDISRTQQSRQSPQELMWKNKA
binding [4]: binds

B5: FCA^S592A fused to the C-terminal half of YFP (protein, UniProt O04425 1-747)
chain: MNGPPDRVDFKPMGPHHGGSFRPMGFAYDDGFRPMGPNGGVGGEGTRSIVGARYNYPAKYPPSESPDRRRFIGKAMESDYSVRPTTPPVQQPLSGQKRGYPISDHGSFTGTDVSDRSSTVKLFVGSVPRTATEEEIRPYFEQHGNVLEVALIKDKRTGQQQGCCFVKYATSKDADRAIRALHNQITLPGGTGPVQVRYADGERERIGTLEFKLFVGSLNKQATEKEVEEIFLQFGHVEDVYLMRDEYRQSRGCGFVKYSSKETAMAAIDGLNGTYTMRGCNQPLIVRFAEPKRPKPGESREMAPPVGLGSGPRFQASGPRPTSNFGDSSGDVSHTNPWRPATSRNVGPPSNTGIRGAGSDFSPKPGQATLPSNQGGPLGGYGVPPLNPLPVPGVSSSATLQQQNRAAGQHITPLKKPLHSPQGLPLPLRPQTNFPGAQAPLQNPYAYSSQLPTSQLPPQQNISRATAPQTPLNINLRPTTVSSATVQFPPRSQQQPLQKMQHPPSELAQLLSQQTQSLQATFQSSQQAISQLQQQVQSMQQPNQNLPLSQNGRAGKQQWAGSAIPRVASTTGSTPVSYVQTAAPAVSQSVGAVKCTWTEHTSPDGFKYYYNGLTGESKWEKPEEMIVFEREQQKQQQHQEKPTIQQSQTQLQPLQQQPQQVQQQYQGQQLQQPFYSSLYPTPGASHNTQYPSLPVGQNSQFPMSGIGQNAQDYARTHIPVGAASMNDISRTQQSRQSPQELMWKNKA
binding [4]: no binding

B6: FLK, yeast two-hybrid fusion (protein, UniProt Q9SR13 1-577)
chain: MAEAEDQQNFVAHNGDQVPDQGSDELHNGLPYQVHDETLVHQPYEVEDPILEPQQYEVPDPTLEPQQYEVPDQTLEPQQYEVDDQLEYHQYQLQDQANEDVQDHSQDDLQYQPQNQEQFQLQDEAHDQAQYQAQGDVQDHNGDEVQDKVEDEEGIPEHLESLQKSEPEEDATVGGEEKRWPGWPGETVFRMLVPAQKVGSIIGRKGDVIKKIVEETRARIKILDGPPGTTERAVMVSGKEEPESSLPPSMDGLLRVHMRIVDGLDGEASQAPPPSKVSTRLLVPASQAGSLIGKQGGTVKAIQEASACIVRVLGSEDLPVFALQDDRVVEVVGEPTSVHRALELIASHLRKFLVDRSIIPFFENQMQKPTRQMDHMPPPHQSWGPPQGHAPSVGGGGYGHNPPPYMQPPPRHDSYYPPPEMRQPPMEKQPHQGISAYGREPPMNVHVSSAPPMVAQQVTQQMQIPLSYADAVIGTSGSNISYTRRLSGATVTIQETRGVPGEMTVEVSGTGSQVQTAVQLIQNFMAEAGAPAPAQPQTVAPEQQGYNPYATHGSVYAAAPTNPPGGYATDYSSGYGY
binding [3]: no binding
